In PubChem BioAssay AID1466 (National Center for Advancing Translational Sciences (NCATS), 2008):
About 10 (0.005%) of roughly 200,000 compounds were called active. Inconclusive means that the source gave no clear call. Such entries were picked first, then a sample of the others. Calls follow the shape of the dose curve; as a rule, active = well fitted inhibition curve with a large enough effect; inconclusive = small, poorly fitted or top-dose-only effect, or effect the other way, or another doubt; inactive = no such curve, though single readings can be large or run the other way. Potencies of inconclusive entries are left out as doubtful fits.
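For activity change, negative = inhibition in this document: plate controls were uninhibited enzyme wells for no effect and no-enzyme background for full effect.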
Potency is read from the fitted curve at half-maximal effect; tags tell the direction and shape of the fitted curve.

The molecules below were run against Lysosomal alpha-glucosidase (Homo sapiens) (UniProt P10253) (assay: qHTS Assay for Inhibitors of Human alpha-Glucosidase as a Potential Chaperone Treatment of Pompe Disease). Conditions: purified human GAA, 4-MU-alpha-glucoside fluorescence; activity change, negative = inhibition: at 76.9 µM (top of the series) unless noted.
Method in brief: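 Fluorogenic assay: 4 nM human alpha-glucosidase with 400 uM 4-methylumbelliferyl-alpha-D-pyranoside in 50 mM citrate/phosphate, 0.005% Tween-20, pH 5.0, 20 min at room temperature. Compounds tested up to 77 uM; AC50 from Hill fits.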
In the case of `COc1ccc2c(C)cc(SCC(=O)Nc3nsc(-c4ccc(C)cc4)n3)nc2c1`, the activity change, negative = inhibition is reported as inconclusive: -15.9% [inhibitor].
In the case of `CCOC(=O)c1c(NC(=O)COC(=O)CCS(=O)(=O)c2ccc(C)cc2)sc(C)c1C`, the Potency is reported as inconclusive [inhibitor, single point].
With `COC(=O)c1ccc(N2C(=O)CC(SCCN)C2=O)cc1` (stereo not drawn) the Potency was “inactive”.
In the case of `O=C(c1ccccc1)c1c[nH]c(C(=O)NCCCN2CCOCC2)c1`, the Potency is reported as inconclusive [activator, full curve, poor fit].
For `Cc1onc(-c2ccccc2Cl)c1C(=O)N1CCN(Cc2ccc3c(c2)OCO3)CC1`, the Potency was inconclusive [inhibitor, single point].
In the case of `O=C(Cn1nnc2ccccc21)Nc1ccccc1[N+](=O)[O-]`, the activity change, negative = inhibition is reported as inconclusive: 17% [activator].
For `CC(C)C(=O)Nc1nnc(SCC(=O)N2c3ccccc3CC2C)s1` (stereo not drawn), the Potency was inconclusive [inhibitor, single point].
`S=c1[nH]nc(-c2ccc(Cl)cc2Cl)n1Cc1ccccc1` was tested, and the Potency was inconclusive [inhibitor, single point].
`NC(=O)CSc1nnc(-c2cccc(S(=O)(=O)N3CCOCC3)c2)n1C1CCCCCC1` was tested, and the Potency was inconclusive [inhibitor, single point].
`Cc1cc(=O)n(-c2ccc(O)cc2)[nH]1` was tested, and the Potency was “inactive”.
In the case of `CC1=NN(c2ccc(Br)cc2)C(=O)/C1=C/c1cccs1`, the Potency is reported as inconclusive [inhibitor, single point].
With `CCOC(=O)c1sc(NC(=O)Cc2ccc(C)cc2)nc1C` the Potency was inconclusive [inhibitor, full curve].
For `CCCOC(=O)C1=C(C)NC2=C(C(=O)C(C(=O)OC)C(C)C2)C1c1ccc(N(C)C)cc1` (stereo not drawn), the Potency was inconclusive [inhibitor, partial curve, poor fit].
In the case of `N#Cc1c(C(F)(F)F)cc(-c2ccccc2)[nH]c1=O`, the Potency is reported as inconclusive [activator, partial curve].
`Nc1ccc2oc(=O)c3ccccc3c2c1` was tested, and the Potency was “inactive”.
In the case of `Cc1ccc(NC(=O)COC(=O)CNC(=O)c2cccc([N+](=O)[O-])c2)cc1S(=O)(=O)N1CCCCCC1`, the Potency is reported as inconclusive [inhibitor, full curve].
In the case of `Oc1ccc(/C=N/NC(=S)NCC2CCCO2)cc1` (stereo not drawn), the Potency is reported as “inactive”.
For `COc1ccc2cc(-c3[nH]ncc3CN3C[C@@H]4CCC[C@H]3C4)ccc2c1`, the Potency was inconclusive [inhibitor, single point].
In the case of `Cc1ccc(C=Nc2ccccc2C(=O)Nc2ccccc2)cc1`, the Potency is reported as inconclusive [activator, single point].
For `O=C1NN=C(c2ccc(Cl)cc2)CC1c1cccc(Cl)c1` (stereo not drawn), the Potency was inconclusive [inhibitor, single point].
For `Cc1nc2nc(-c3ccccc3)cn2nc1C`, the activity change, negative = inhibition was inconclusive: 50.8% [activator].
For `CCOC(=O)C1=C(CC)OC(N)=C(C#N)C1c1ccc(F)cc1F` (stereo not drawn), the Potency was inconclusive [inhibitor, single point].
In the case of `C#CCOc1ccc2c(C)cc(=O)oc2c1`, the Potency is reported as inconclusive [activator, partial curve].
With `COc1cc(S(=O)(=O)N2CCC(c3nc4ccccc4s3)CC2)ccc1S(=O)(=O)NC1CCCC1` the Potency was inconclusive [inhibitor, full curve, poor fit].
With `Cn1c(=O)cc(SCC(=O)NCC2CCCO2)c2ccc(Cl)cc21` (stereo not drawn) the activity change, negative = inhibition was inconclusive: -15.5% [inhibitor].
For `CCOC(=O)Nc1c(O)ccc2oc(C)c(-c3ccccc3)c12`, the Potency was inconclusive [inhibitor, partial curve].
In the case of `O=C(NC1CCCCC1)C(c1ccc(O)cc1)N(CC1CCCO1)C(=O)C1COc2ccccc2O1` (stereo not drawn), the Potency is reported as inconclusive [inhibitor, full curve, poor fit].
For `Cc1cc2c(=O)oc(-c3ccc(F)cc3)nc2s1`, the activity change, negative = inhibition was inconclusive: 17.9% [activator].
`Cc1ccc(NC(=O)C(OC(=O)c2ccccc2Cl)c2ccccc2)cc1Cl` (stereo not drawn) was tested, and the Potency was inconclusive [inhibitor, single point].
With `CCOC(=O)COc1c(/C=N\O)cc(Cl)cc1OC` the Potency was inconclusive [inhibitor, single point].
For `Cc1nnsc1C(=O)NNc1ccc(C(C)C)cc1`, the Potency was “inactive”.
For `Clc1cccc(-c2nc(NCc3cccnc3)c3ccccc3n2)c1`, the Potency was inconclusive [inhibitor, partial curve].
With `Cc1cccc(-c2nnc(SCC#N)n2C)c1` the activity change, negative = inhibition was inconclusive: 16.3% [activator].
With `Cc1cccc(C2c3[nH]c4ccccc4c3CCN2C(=O)c2cc3c([nH]c2=O)CCCC3)n1` (stereo not drawn) the activity change, negative = inhibition was inconclusive: 12.7% [activator].
`Cc1cc(C)c(C)c(S(=O)(=O)N2CCN(CC(=O)Nc3sccc3C#N)CC2)c1C` was tested, and the Potency was inconclusive [inhibitor, single point].
For `Cc1c(NC2=C(Cl)C(=O)N(c3ccccc3)C2=O)c(=O)n(-c2ccccc2)n1C`, the Potency was “inactive”.
`COc1ccc(CNc2nc(-c3cccnc3)nn2C(=O)CC(C)C)cc1` was tested, and the Potency was inconclusive [inhibitor, full curve, poor fit].
For `CCOc1ccc(N2C(=O)CC(/C=C3/N(C)c4ccccc4C3(C)C)C2=O)cc1` (stereo not drawn), the Potency was inconclusive [inhibitor, single point].
In the case of `COc1c(C(=O)Nc2ccc(Cc3ccncc3)cc2)ccc2ccccc12`, the Potency is reported as inconclusive [inhibitor, single point].
With `COc1ccc(CC2(CO)CCN(C(C)COc3ccccc3)CC2)cc1` (stereo not drawn) the Potency was inconclusive [inhibitor, single point].
For `CCOc1ccc(NC(=O)Cn2c(=O)n(CC3CCCO3)c(=O)c3ccccc32)cc1` (stereo not drawn), the Potency was inconclusive [inhibitor, partial curve].
In the case of `CCN1C(=O)c2ccccc2Sc2ccc(C(=O)NCCCN3CCOCC3)cc21`, the Potency is reported as “inactive”.
In the case of `O=C(CSc1ncc(C(F)(F)F)cc1Cl)N1CCN(S(=O)(=O)c2ccccc2)CC1`, the Potency is reported as active: 35.5 µM.
